From patent US20140350081A1, “INSECT G-COUPLED RECEPTORS USEFUL AS TARGETS FOR INSECTICIDES AND COMPOUNDS AND REAGENTS IDENTIFIED USING THE SAME” (priority 2011, published 2014) come the findings set out here.

In assay [1] the target is Isdop1 (Ixodes scapularis, UniProt A0ACM8FJJ0). As to the kind of experiment: cAMP accumulation confirmation assay, cells stably expressing Isdop1. It counts as cell-based. For orientation: Cyclic AMP is a second messenger, typically raised through Gs and lowered through Gi signalling.
For assay [2], the target named is T1, Isdop2 (Ixodes scapularis, UniProt A0ACM8DGL0). As to the kind of experiment: cAMP accumulation confirmation assay, cells stably expressing Isdop2. It counts as cell-based.
The target of assay [3] is T2, AaDOP2 (Aedes aegypti, UniProt H6D5H2). Description: HTRF cAMP accumulation concentration response assay (Cisbio Dynamic 2). It counts as cell-based. A general note: Time-resolved FRET reads energy transfer from a long-lived donor to a nearby acceptor.
For assay [4], the target named is T3, human D1 dopamine receptor (hD1) (Homo sapiens, UniProt P21728).
T3 construct: expressed in transfected cells
As to the kind of experiment: cAMP accumulation secondary assay, hD1-expressing cells. It counts as cell-based, H. sapiens.

Assay [5] concerns the target T2, AaDOP2. As to the kind of experiment: cell-based.
The target in assay [6] is T1, Isdop2. Description: cell-based. Format: cell-based. Particulars: for inhibition at 10 µM: read-out: % Inhibition (of response to dopamine), Isdop2 screen.
Setting [7] is: IC50 ± S.E.M. (nM), HTRF cAMP assay.

Where a name gives a salt, the structure may show the parent alone. Read-outs that look alike come from different tables or passages of the source.

T1 sequence (A0ACM8DGL0 entry or part of it): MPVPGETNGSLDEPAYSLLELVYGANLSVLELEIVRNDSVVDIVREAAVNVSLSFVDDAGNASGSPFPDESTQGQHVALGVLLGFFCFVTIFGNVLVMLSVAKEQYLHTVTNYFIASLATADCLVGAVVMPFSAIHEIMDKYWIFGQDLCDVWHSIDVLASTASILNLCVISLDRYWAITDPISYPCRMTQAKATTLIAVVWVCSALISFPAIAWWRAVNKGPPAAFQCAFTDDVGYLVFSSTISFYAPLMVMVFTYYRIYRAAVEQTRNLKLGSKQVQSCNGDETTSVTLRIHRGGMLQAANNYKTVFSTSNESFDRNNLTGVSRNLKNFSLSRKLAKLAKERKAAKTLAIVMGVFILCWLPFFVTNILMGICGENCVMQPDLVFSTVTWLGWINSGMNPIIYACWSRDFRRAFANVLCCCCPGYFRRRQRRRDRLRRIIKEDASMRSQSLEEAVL
T2 sequence (H6D5H2 entry or part of it): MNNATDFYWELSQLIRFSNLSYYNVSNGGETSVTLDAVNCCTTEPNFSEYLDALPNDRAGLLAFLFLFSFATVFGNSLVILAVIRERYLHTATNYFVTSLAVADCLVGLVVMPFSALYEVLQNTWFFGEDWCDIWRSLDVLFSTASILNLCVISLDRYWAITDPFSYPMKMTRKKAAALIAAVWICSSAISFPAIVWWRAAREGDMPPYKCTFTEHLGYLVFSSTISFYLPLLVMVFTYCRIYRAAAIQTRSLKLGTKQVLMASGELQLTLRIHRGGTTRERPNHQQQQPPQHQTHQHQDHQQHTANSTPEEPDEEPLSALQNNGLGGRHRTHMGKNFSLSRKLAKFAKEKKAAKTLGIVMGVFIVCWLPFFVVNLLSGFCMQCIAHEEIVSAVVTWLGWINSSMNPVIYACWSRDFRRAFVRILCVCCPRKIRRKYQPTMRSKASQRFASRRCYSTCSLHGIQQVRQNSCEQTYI
T3 sequence (P21728 whole entry): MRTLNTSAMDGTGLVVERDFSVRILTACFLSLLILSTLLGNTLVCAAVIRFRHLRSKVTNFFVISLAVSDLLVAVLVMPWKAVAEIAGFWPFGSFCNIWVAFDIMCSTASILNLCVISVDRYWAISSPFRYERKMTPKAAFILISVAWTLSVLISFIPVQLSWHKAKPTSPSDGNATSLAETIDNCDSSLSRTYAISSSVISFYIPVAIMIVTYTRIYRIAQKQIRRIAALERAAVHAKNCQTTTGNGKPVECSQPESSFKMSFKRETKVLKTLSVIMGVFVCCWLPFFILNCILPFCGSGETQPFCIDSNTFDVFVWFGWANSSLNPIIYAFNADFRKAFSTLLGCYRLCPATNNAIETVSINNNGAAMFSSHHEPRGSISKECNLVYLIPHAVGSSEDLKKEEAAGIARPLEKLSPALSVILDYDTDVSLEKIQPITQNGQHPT

As a reminder, the IC50 is the point on the concentration scale where inhibition reaches its midpoint. A high value points to a need for much substance. As for `CN1CCN(C2=Nc3cc(Cl)ccc3Nc3ccccc32)CC1` [Clozapine, (8-chloro-11-(4-methylpiperazin-1-yl)-5I-dibenzo[b,e][1,4]-diazepine)], the figures for the IC50 in assay [1] and in assay [2] were 4.7 µM and 9.3 µM, respectively.

For the compound `CN1CCC(=C2c3ccccc3C=Cc3ccccc32)CC1` [Cyproheptadine], the IC50 in assay [3] turned out to be 6.5 ± 1.9 nM.

In the case of `CN(C)CCC=C1c2ccccc2COc2ccccc21` (mixture of isomers) [Doxepin, ((Z)-3-(dibenzo[b,e]oxepin-11(6H)-ylidene)-N,N-dimethylpropan-1-amine)], the results for the IC50 in assay [4], in assay [3] (setting [7]) and in assay [5] were 0.96 ± 0.086 µM, 20 ± 6.2 nM and 0.031 ± 0.0049 µM, respectively.

With `CNCCC(Oc1ccc(C(F)(F)F)cc1)c1ccccc1` (stereo not drawn) [Fluoxetine], the “IC50 ± S.E.M. (nM), HTRF cAMP assay” value in assay [3] is recorded as “No Inhibition^a”; in assay [3] (listed as fluoxetine), “no inhibition”.

Compound `Cc1cc2c(s1)Nc1ccccc1N=C2N1CCN(C)CC1` [Olanzapine] returned an IC50 in assay [3] of 11 ± 2.2 nM.

Turning to `CN1CCN2c3ccccc3Cc3ccccc3C2C1` (racemic) [Mianserin, ((±)-2-methyl-1,2,3,4,10,14b-hexahydrodibenzo[c,f]pyrazino [1,2-a]azepine)], the values for the concentration for half-maximal inhibition (IC50) in assay [3] (setting [7]) and in assay [5] were 130 ± 24 nM and 0.12 ± 0.04 µM, respectively.

In the case of `O=C(CCCN1CCC(O)(c2ccc(Cl)cc2)CC1)c1ccc(F)cc1` [Haloperidol], the IC50 in assay [3] (setting [7]) was 4300 nM.

`O=c1n(CCCN2CCN(c3cccc(Cl)c3)CC2)nc2ccccn12` [Trazodone]: the “IC50 ± S.E.M. (nM), HTRF cAMP assay” value in assay [3] is recorded as “No Inhibition^a”.

`Clc1ccc2c(c1)CCc1cccnc1C2=C1CCNCC1` [Desloratidine, 8-Chloro-6,11-dihydro-11-(4-piperidinylidene)-5H-benzo[5,6]cyclohepta[1,2,b]pyridine] gave an IC50 in assay [3] of 1170 nM.

In assay [3], `OCCN1CCN(CCCN2c3ccccc3Sc3ccc(C(F)(F)F)cc32)CC1` [Fluphenazine, 2-[4-[3-[2-(trifluoromethyl)-10H-phenothiazin-10-yl]propyl]piperazin-1-yl]ethanol] yielded a concentration for half-maximal inhibition (IC50) of 15 nM. This IC50 lies about 78-fold lower than the previous one.

Regarding `Clc1ccc(COC(Cn2ccnc2)c2ccc(Cl)cc2Cl)c(Cl)c1` (stereo not drawn) [Miconazole nitrate, 1-(2,4-Dichloro-β-[(2,4-dichlorobenzyl)oxy]phenethyl)imidazole], in assay [3] (Avg IC50 (μM), in vitro Concentration Response Curve assay, n = 2, relative to control antagonist Amitriptyline), inhibition was half-maximal at 7350 nM (IC50).

The compound `CN(C)CCOC(c1ccccc1)c1ccccc1` [Diphenhydramine] gave an IC50 in assay [3] (setting [7]) of 7500 nM.

Turning to `CCN(CC)C(=O)NC1C=C2c3cccc4[nH]cc(c34)C[C@H]2N(C)C1.O=C(O)/C=C\C(=O)O` (stereo partly drawn) [R(+)-Lisuride hydrogen maleate], in assay [6], the “% Inhibition (of response to dopamine), Isdop2 screen” value is reported as 84%.

Turning to `O=C1CCc2ccc(OCCCCN3CCN(c4cccc(Cl)c4Cl)CC3)cc2N1` [Aripiprazole], in assay [3] (setting [7]), the IC50 is 6500 nM.

`CN1C2CCC1CC(OC(c1ccccc1)c1ccccc1)C2` (stereo not drawn) [Benztropine, (3-endo)-3-(diphenylmethoxy)-8-methyl-8-azabicyclo[3.2.1]octane]: the IC50 in assay [3] (setting [7]) was 340 ± 41 nM.

One may read the inhibition as the percentage by which the read-out fell short of the control. For `Cc1ccccc1C(OCCN(C)C)c1ccccc1` (stereo not drawn) [Orphenadrine hydrochloride], the inhibition at 10 µM in assay [6] was determined as 81%.

Take `Cc1nc2n(c(=O)c1CCN1CCC(c3noc4cc(F)ccc34)CC1)CCCC2` [Risperidone, 4-[2-[4-(6-fluorobenzo[d]isoxazol-3-yl)-1-piperidyl]ethyl]-3-methyl-2,6-diazabicyclo[4.4.0]deca-1,3-dien-5-one]: in assay [3], the IC50 was determined as 150 ± 41 nM.

`CN(C)CCCN1c2ccccc2CCc2ccc(Cl)cc21` [Clomipramine] yielded an IC50 in assay [3] (setting [7]) of 56 ± 18 nM.

In the case of `CN1CCC[C@@H]1CCO[C@](C)(c1ccccc1)c1ccc(Cl)cc1` [Clemastine fumarate], in assay [6], the inhibition at 10 µM was 90%.
